Test results as given in the supplement of paper PMC10126150.
Sequences with one replicate were seen in a single cluster, so their values are uncertain.

The sequences below were run on ATP (assay: switch fluorescence ratio, 500 uM ATP over buffer (Cy3 cluster intensity, sum of 5 cycles each) (fold (ratio)); higher = stronger signal-on switching upon ATP binding; sequences stand for … in TCGTCGGCAGCGTCAGATGTGTATAAGAGACAGTTTTTTTTTTTTTTTTTTTTTTTTT…TC). Conditions: aptamer strand: ATP DNA aptamer (quencher-CACCTGGGGGAGTATTGCGGAGGAAGG + anchor), 100 nM annealed; ATP concentration: 500 uM; one replicate.
How it was run: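 Clusters with intensities outside 100-1000 RFU were excluded. The remaining Cy3-labelled switching-strand clusters on a modified Illumina MiSeq flow-cell had been annealed to 100 nM quencher-labelled ATP aptamer and imaged in selection buffer, then after 15 min with 500 uM ATP at 22 °C, for five cycles separated by NaOH stripping and re-annealing. The fluorescence ratio, averaged per switch-domain sequence, is each cluster's summed target-cycle Cy3 intensity over its summed buffer-cycle Cy3 intensity.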
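Also: ATP exposure 15 min at 22 °C before imaging.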

Sequence	switch fluorescence ratio
TAGGTAACTG	1.06
TAGGTAGAG	0.977
TAGGTAGGAA	0.982
TAGGTCCGGC	1.11
TAGGTCGAAA	1.01
TAGGTGAAAA	0.979
TAGGTGAAAG	0.977
TAGGTGCCAT	1.02
TAGGTGTGAG	0.96
TAGGTTAGCC	1.01
TAGGTTATT	0.96
TAGGTTGCAT	0.956
TAGGTTTCCT	1.28
TAGTAACACC	1.04
TAGTAACCTT	1.67
TAGTACAATG	1.01
TAGTACCACC	1.05
TAGTAGGT	1
TAGTATCGGA	1.01
TAGTATGGG	0.995
TAGTGACTGT	1.02
TAGTGCAC	0.985
TAGTGGTTC	1
TAGTGTATGG	1
TAGTGTCTCT	1.01
TAGTGTGTCA	0.972

Sequence	switch fluorescence ratio
TAGTTACCG	1.01
TAGTTAGTGC	0.939
TAGTTCCACC	1.06
TAGTTCCGTG	1.06
TAGTTCGCC	0.941
TAGTTCTGAA	0.979
TAGTTGATTT	0.93
TAGTTGCAAC	0.99
TAGTTGCTT	0.974
TAGTTGTGCT	0.975
TAGTTGTTCG	1.02
TAGTTTAGCA	0.945
TAGTTTATAC	1.06
TAGTTTGTGG	0.935
TATAAAACGC	1.05
TATAAACCCA	0.988
TATAAAGATA	0.944
TATAACGTTT	0.976
TATAAGCCCG	1
TATAAGGGAT	1.04
TATAAGTTTA	0.978
TATAATAGGC	0.982
TATAATCCTA	1.01
TATAATCTTC	1.06
TATAATTGCA	0.975
TATACAATAG	1.05

Sequence	switch fluorescence ratio
TATACCCGGC	1.08
TATACCTCG	1.02
TATACCTT	1.15
TATACGCTGG	0.963
TATACGGTAT	1.17
TATACGTAGG	1.04
TATACTACCT	1.34
TATACTGTCC	1.27
TATACTTATG	1.04
TATAGAGGTC	1.07
TATAGCCACA	0.999
TATAGCGACC	1.1
TATAGGGTAG	1
TATAGTCGGC	1.01
TATAGTGCA	1.03
TATAGTGCCT	1.07
TATATACTCA	1.1
TATATACTTA	1.04
TATATAGCAA	1.58
TATATATTGG	1.01
TATATCCCGG	0.977
TATATCCGAT	1
TATATCCGCT	1.09
TATATCGGTA	1.01
TATATCTGGT	1
TATATTTCAG	1.01

Sequence	switch fluorescence ratio
TATCAACCAG	1.05
TATCAAGGG	0.986
TATCAGACGG	0.969
TATCAGATTC	1.02
TATCAGTCTT	0.959
TATCCCAACG	1.03
TATCCGATTC	1.02
TATCCTAATG	1.01
TATCGCCTTA	0.987
TATCGCTACG	0.974
TATCGGCTAT	1.02
TATCGGGAGT	1.01
TATCGGGGAT	1
TATCGGTCT	0.987
TATCGGTTGC	0.98
TATCGTAACC	0.972
TATCGTAGGT	0.985
TATCGTAGTA	0.987
TATCGTGGCC	0.965
TATCGTTATG	0.988
TATCGTTGCA	0.981
TATCTAAACA	1.13
TATCTACCCG	1.06
TATCTCGGCT	1
TATCTTCTAG	1.03
TATCTTGGTG	1.02

Sequence	switch fluorescence ratio
TATCTTGTAT	1.08
TATGAAAACA	0.993
TATGAAAAGC	1
TATGAAAGAT	0.989
TATGAAATTA	1.02
TATGAACGTG	0.998
TATGACAAGA	1.04
TATGAGATAA	1.05
TATGAGCGCC	1.02
TATGAGGTAG	0.988
TATGAGTGTG	0.964
TATGATTA	1.02
TATGCAATAG	4.28
TATGCATGGC	1.22
TATGCCAGAT	0.987
TATGCCCAT	0.981
TATGCCCGAA	1.01
TATGCGACTG	1.14
TATGCGCAAG	1.04
TATGCGTAC	1.14
TATGCTGGTA	0.964
TATGGACGAG	0.959
TATGGAGCGG	1.02
TATGGAGGCA	0.986
TATGGAGTCG	0.981
TATGGCTCTT	0.938

Sequence	switch fluorescence ratio
TATGGGAATC	1.01
TATGGGATGG	0.978
TATGGGCAT	1.06
TATGGGGCT	1
TATGGGGGCG	0.951
TATGGGTCAA	1
TATGGGTTAG	0.98
TATGGTATTC	1.01
TATGTAATAT	0.977
TATGTATGTA	0.992
TATGTATTTA	1
TATGTCATGG	1.03
TATGTCTGC	1
TATGTCTGTG	1.02
TATGTCTTGA	1.03
TATGTGTATC	0.959
TATGTTATCC	1
TATTAAAGG	1.05
TATTAAGACT	1.02
TATTAAGATG	1.07
TATTAATGGT	0.947
TATTACAATT	1.06
TATTACGGTC	1.04
TATTAGATA	0.98
TATTAGGCCC	0.994
TATTCACTAC	1.03

Sequence	switch fluorescence ratio
TATTCAGCAT	1.04
TATTCATAAC	0.989
TATTCCAAGG	1.02
TATTCCACTT	1
TATTCCAGAT	1.01
TATTCCTCAT	1.05
TATTCGCGTT	1.15
TATTCGTACG	0.966
TATTCTGTTT	0.944
TATTGAGATC	0.92
TATTGAGTAT	1
TATTGCACAG	1.02
TATTGCTCAG	0.981
TATTGCTGGG	1.02
TATTGGAAAA	0.934
TATTGGGCTG	0.939
TATTGTCACG	1.08
TATTGTCAGG	0.994
TATTTACCGG	0.996
TATTTAGACG	1.08
TATTTATATA	1.04
TATTTCCCTC	1.03
TATTTCTACA	1.05
TATTTGATTC	1.05
TATTTGCGTT	0.972
TATTTGGAAC	1.02

Sequence	switch fluorescence ratio
TATTTGTTGA	1.02
TATTTTAAAT	1.04
TATTTTGCAA	1.09
TATTTTGGAT	0.983
TATTTTTGT	0.986
TCAAAAATAC	2.2
TCAAAATAGG	1
TCAAAGAGCA	1.02
TCAAAGCAAC	3.44
TCAAAGCCGA	1.02
TCAAAGGGTT	1.04
TCAAAGTCGG	1.01
TCAAATATAT	1.29
TCAAATGAGT	1
TCAAATTCTA	0.923
TCAACACCCC	1.17
TCAACCGTT	1.02
TCAACCTCCC	1.91
TCAACGGCAG	0.998
